The test system of this experiment is A673/TR/shEF. Nature of the experiment: cell viability (LOESS-normalised, relative to median of negative controls) (log2 ratio); higher = more viable cells (less compound effect), active = hit call of the paper (over 3 MAD below the median). To be noted: treatment time: 72 h. The essentials:
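For three days, A673/TR/shEF Ewing sarcoma cells in 384-well plates (1,500 per well) were treated with library compounds at two or more concentrations or with DMSO controls, after doxycycline had been added or withheld 24 h beforehand to induce EWS-FLI1 shRNA knockdown. Viability was read by CellTiter-Glo luminescence on an Envision reader. The data were LOESS-corrected per plate, divided by the median of negative controls and log2-transformed.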

The mark [1] stands for this setting: 0.25 µM, library screen: screen1, EWS-FLI1 expression: high (no doxycycline).
Where [2] appears, read: 0.25 µM, library screen: screen1, EWS-FLI1 expression: low (doxycycline-induced shRNA knockdown).
Setting [3] is: 2.5 µM, library screen: screen1, EWS-FLI1 expression: high (no doxycycline).
Where [4] appears, read: 2.5 µM, library screen: screen1, EWS-FLI1 expression: low (doxycycline-induced shRNA knockdown).
[5] abbreviates: 25 µM, library screen: screen1, EWS-FLI1 expression: high (no doxycycline).

Structures are written as SMILES. Among all 3,200 compounds or so, about 300 (9.4%) showed activity. The list shows a part of the results, in another mix than the full data.

Regarding `Cn1c(=O)[nH]c2nc[nH]c2c1=O`, the “cell viability (log2)” value was inactive: 0.0262 under setting [1], inactive: 0.135 under setting [2], inactive: 0.103 under setting [3] and inactive: 0.0812 under setting [4].
Taken in the same sequence, the figures for `CC12CCC3c4ccc(OCc5ccccc5)cc4CCC3C1C[C@@H](O)[C@@H]2O` (stereo partly drawn) were inactive: 0.0858, inactive: 0.0634, inactive: 0.147 and inactive: 0.17.
Taken in the same sequence, the figures for `O=C(/C=C/c1ccc(O)c(O)c1)O[C@@H]1C[C@](O)(C(=O)O)C[C@@H](O)[C@H]1O` were inactive: 0.0547, inactive: 0.0452, inactive: 0.128 and inactive: 0.0579.
`C#CCn1c(=O)c2c(ncn2C)n(C)c1=O`: the “cell viability (log2)” value reads like this: (0.25 µM, library screen: screen2, EWS-FLI1 expression: high (no doxycycline)) inactive: 0.157; (0.25 µM, library screen: screen2, EWS-FLI1 expression: low (doxycycline-induced shRNA knockdown)) inactive: 0.0727; (2.5 µM, library screen: screen2, EWS-FLI1 expression: high (no doxycycline)) inactive: 0.134; (2.5 µM, library screen: screen2, EWS-FLI1 expression: low (doxycycline-induced shRNA knockdown)) inactive: 0.0583.
Turning to `COc1cc(O)ccc1C(C)=O`, the “cell viability (log2)” value reads like this: under setting [1], inactive: 0.0494; under setting [2], inactive: 0.0757; under setting [3], inactive: 0.0776; under setting [4], inactive: 0.0818.
Taken in the same sequence, the figures for `CC(=O)OCC(=O)[C@H]1CC[C@H]2[C@@H]3CCC4=CC(=O)CC[C@]4(C)[C@H]3CC[C@]12C` were inactive: 0.0794, inactive: 0.132, inactive: 0.162 and inactive: 0.198.
`Cc1cc(=O)c2c(o1)-c1c(cc(O)c(O)c1C(=O)O)OC2`: the “cell viability (log2)” value reads like this: under setting [1], inactive: 0.0145; under setting [2], inactive: 0.0255; under setting [3], inactive: 0.0451; under setting [4], inactive: 0.0692.
Turning to `C#C[C@]1(O)CC[C@H]2[C@@H]3CCC4=CC(=O)CC[C@@H]4[C@H]3CC[C@@]21CC`, the “cell viability (log2)” value (0.103 µM, library screen: screen3, EWS-FLI1 expression: high (no doxycycline)) was inactive: 0.0798; the “cell viability (log2)” value (0.103 µM, library screen: screen3, EWS-FLI1 expression: low (doxycycline-induced shRNA knockdown)) is inactive: -0.0216; the “cell viability (log2)” value under setting [1] was inactive: 0.0123; the “cell viability (log2)” value under setting [2] was inactive: 0.0749; the “cell viability (log2)” value (0.308 µM, library screen: screen3, EWS-FLI1 expression: high (no doxycycline)) was inactive: 0.127; the “cell viability (log2)” value (0.308 µM, library screen: screen3, EWS-FLI1 expression: low (doxycycline-induced shRNA knockdown)) was inactive: 0.0715. Besides, the “cell viability (log2)” value is, setting by setting: (0.926 µM, library screen: screen3, EWS-FLI1 expression: high (no doxycycline)) inactive: 0.122; (0.926 µM, library screen: screen3, EWS-FLI1 expression: low (doxycycline-induced shRNA knockdown)) inactive: 0.0282; under setting [3], inactive: 0.115; under setting [4], inactive: 0.14; (2.8 µM, library screen: screen3, EWS-FLI1 expression: high (no doxycycline)) inactive: 0.047; (2.8 µM, library screen: screen3, EWS-FLI1 expression: low (doxycycline-induced shRNA knockdown)) inactive: 0.104. For the same compound, the “cell viability (log2)” value reads like this: (8.3 µM, library screen: screen3, EWS-FLI1 expression: high (no doxycycline)) inactive: 0.0644; (8.3 µM, library screen: screen3, EWS-FLI1 expression: low (doxycycline-induced shRNA knockdown)) inactive: 0.0886; (25 µM, library screen: screen3, EWS-FLI1 expression: high (no doxycycline)) inactive: 0.129; (25 µM, library screen: screen3, EWS-FLI1 expression: low (doxycycline-induced shRNA knockdown)) inactive: 0.111.
Turning to `N#C/C(=C\c1ccc(O)c(O)c1)C(=O)NCc1ccccc1`, the “cell viability (log2)” value was active: -0.573 under setting [3], active: -0.157 under setting [4] and active: -0.423 under setting [5].
`CC(CN(C)C)CN1c2ccccc2Sc2ccccc21` (stereo not drawn): the “cell viability (log2)” value is, setting by setting: under setting [1], inactive: 0.0891; under setting [2], inactive: 0.0723; under setting [3], inactive: 0.192; under setting [4], inactive: 0.305.
As for `CCCCC/C=C\C/C=C\C/C=C\C/C=C\CCCC(=O)O`, the “cell viability (log2)” value under setting [1] was inactive: 0.053, the “cell viability (log2)” value under setting [2] is inactive: 0.0191, the “cell viability (log2)” value under setting [3] was inactive: 0.0785 and the “cell viability (log2)” value under setting [4] was inactive: 0.0823.
As to `CCCCCCCCCCCCCCCC(=O)C1=C(O)[C@@H](CO)OC1=O`, the “cell viability (log2)” value (0.025 µM, library screen: screen1, EWS-FLI1 expression: high (no doxycycline)) is inactive: 0.213; the “cell viability (log2)” value (0.025 µM, library screen: screen1, EWS-FLI1 expression: low (doxycycline-induced shRNA knockdown)) is inactive: 0.0909; the “cell viability (log2)” value under setting [1] is inactive: 0.235; the “cell viability (log2)” value under setting [2] is inactive: 0.112; the “cell viability (log2)” value under setting [3] is active: -0.362; the “cell viability (log2)” value under setting [4] was inactive: 0.0271. Moreover, the “cell viability (log2)” value by setting is: under setting [5], active: -0.293; (25 µM, library screen: screen1, EWS-FLI1 expression: low (doxycycline-induced shRNA knockdown)) inactive: -0.135.

Source of the values: the supplement of paper PMC6089552.
